± gives the standard deviation of the averaged measurements. This is one part of the list.
System: PfAP2-LT AP2 domain (GST-tagged)
Assay: gcPBM binding intensity (ln(normalized median fluorescence intensity)); higher = stronger DNA binding
How it was run: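 For binding intensity, the highest Masliner-normalised natural-log median intensity across replicate spots of either probe orientation was taken. Protein bound to the array was stained with Alexa488 anti-GST antibody and scanned at 488 nm. The protein, GST-tagged P. falciparum DNA-binding domains from E. coli at about 25 μg on average, had been applied for 1 h to an Agilent 4 × 180k array of primer-extended double-stranded 36-bp intergenic genomic probes and negative controls.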

Row | Sequence | gcPBM binding intensity (ln)
1 | ATATATATATATAATTGTACATATAATATAATATTA [XGTACX_site5216] | 8.63 ± 0.42
2 | AACACATGCTTGGTCACACACGTATGCATATTTAAA [CACACA_site5206] | 9.16 ± 0.29
3 | AATATGTTATAAATATGTTATAAATAATAAATAAAT [GTGCAC_negctrl_site135] | 8.72 ± 0.51
4 | ATATATATTATATATAGTACTTTTTTGCGCAAATAT [XGTACX_site6849] | 8.84 ± 0.42
5 | TCCTTTTTGAAATGTTGTACTTTTTTTATCTTTCAT [XGTACX_site953] | 8.81 ± 0.49
6 | TACATATATTTTTATACATGCATAACTTAGGACTTT [TGCATGCA_site113] | 8.62 ± 0.35
7 | TACCATATTTCTTCAAGTACGCATTATGTTAAAAAG [XGTACX_site345] | 8.51 ± 0.38
8 | ATATTTATATATATCATACACACTAATATGTATATT [CACACA_site3409] | 8.95 ± 0.42
9 | TAATTATATATATACACACACATACAGACAAATAAA [CACACA_site3412] | 9.59 ± 0.28
10 | GAAATTTGTTATTGCACACAAATTTTTCTTTTTTTA [CACACA_site2339] | 8.79 ± 0.35
11 | TTTTATGAAAAGTATTGTACGTATAATTTATATGTA [XGTACX_site1639] | 8.57 ± 0.35
12 | ACATAAGACACAAATACACACAAAAATATGTAACAA [CACACA_site7836] | 9.37 ± 0.38
13 | TATGTATGTGCTTGTGCGCACCGATAATATAGCCAA | 8.95 ± 0.38
14 | TGCTATAATTTATATACACACAAATATATACGCATA [CACACA_site4096] | 8.94 ± 0.36
15 | TCTCATAGTAGACACACACACACACGCACATATATA [CACACA_site6916] | 10.1 ± 0.31
16 | ATAATAATTAACCTATGTACATAGGAAAGTCATAAA [XGTACX_site4387] | 8.93 ± 0.43
17 | AAAAAAAAAAAACACACACACACATACACATACATA [CACACA_site2858] | 10.1 ± 0.22
18 | GAAGAAAAATAAAAAGTGCAAAAAAAGTAAAAATTT [GTGCAC_site9897] | 9 ± 0.51
19 | AATGAATGTAAGAAAATACACACTAGTATAGTAACA [CACACA_site1955] | 9.21 ± 0.38
20 | TTGGAAAAAGTGAAATGTACATATATATTTATTATT [XGTACX_site6946] | 8.71 ± 0.54
21 | AATAATAAAGTGAACACACACATATAACATCTATAT [CACACA_site7868] | 9.25 ± 0.37
22 | AAAGGATTTATACTAGTGCAAAAATATAAAAATATA | 8.76 ± 0.53
23 | GAAGTTTTTTAAAGATGTACTTTTTAAAAATAATCT [XGTACX_site263] | 8.28 ± 0.4

Row | Sequence | gcPBM binding intensity (ln)
24 | TCCATATATGCCTTATGTACATATACCAAATTAACC [XGTACX_site6513] | 8.79 ± 0.42
25 | TTTGGCTAGTTAGGCCGTACATGTAAATAATATATA [XGTACX_site1138] | 8.68 ± 0.42
26 | TTCTTATAAATATACACACACAAAATATCTACAATG [CACACA_site6487] | 9.16 ± 0.39
27 | CCTTAAAATAAGATATGTACGCAAAGGAAAACAAAG [XGTACX_site6057] | 8.96 ± 0.42
28 | TTATAAGATTTATGTACACACATATACTCACCTCTA [CACACA_site729] | 9.11 ± 0.55
29 | TGTGTAAGATCTTGGATGATGATAAGAATCTACTAG [CACACA_negctrl_site1167] | 8.64 ± 0.5
30 | GACACAAAAAAATAATAATAATAATAATAATAAATA [XGTACX_negctrl_site145] | 8.71 ± 0.39
31 | AATATAAATACTCCTACACACATATATATATATATA [CACACA_site3010] | 9.81 ± 0.23
32 | ACAAATACAAAAAAAGGTACACACATAATATATTTA [XGTACX_site5515] | 9.26 ± 0.53
33 | TTTGTTTTTAATTTCGCACACACCTTGTGGAAAAAA [CACACA_site577] | 8.98 ± 0.3
34 | AAATATTTTATACTTGCACACAAAATATATTAAAAT [CACACA_site8606] | 8.89 ± 0.38
35 | ATCCCCATAAAAAATACACACAAATATTTATACATA [CACACA_site1001] | 9.05 ± 0.35
36 | ATATATTAAAAGGATTAGGAAAAAATATGATTTATC [TGCATGCA_negctrl_site405] | 8.47 ± 0.47
37 | ATAGAATCTGGTAGCTGTACGAGTCGTAGAGTGTAG [XGTACX_site2016] | 9.13 ± 0.45
38 | AAGTAAAAAAAAAAAAGTACATGTTTATATAAATAT [XGTACX_site4741] | 8.81 ± 0.51
39 | ATAAATTAACATTAAAGTACATTTTAATAAATATTA [XGTACX_site3647] | 8.31 ± 0.52
40 | ATACATATATATAATACACACATAAATGTAACATTT [CACACA_site3518] | 9.12 ± 0.35
41 | GATCAAAATTATAGAAGTACTTTATATAAATAAAAT [XGTACX_site8161] | 8.63 ± 0.45
42 | TATATATATAAGATTGTGCACATTAAAATGATAGAA [GTGCAC_site9621] | 8.9 ± 0.5
43 | TCATAAATACATTTTGCATGTAAAATATAGAATACA [TGCATGCA_site755] | 8.74 ± 0.42
44 | TCTATAAAATATAAAAGTACGTATCAATAATTAAAA [XGTACX_site8469] | 8.69 ± 0.49
45 | ATTACGATAGAGAAATGTACATATATATATGTAAGT [XGTACX_site1200] | 9.12 ± 0.41
46 | TATTTTATAAATTAATGTACATAAATTATATCTACT [XGTACX_site3625] | 8.55 ± 0.43

Row | Sequence | gcPBM binding intensity (ln)
47 | TGATAAGAAAAAGACTTTTCCTTCTTACTTTCTATG [CACACA_negctrl_site782] | 8.55 ± 0.59
48 | CAAAATAAATAATTTGGTACACATAAAAAAAAAAAA [XGTACX_site8380] | 8.79 ± 0.69
49 | AATAATGTTTTTATATCACACACAAATATTAAATGA [CACACA_site8074] | 8.83 ± 0.47
50 | AAAATTGGTGAAAATGAAAATATGATTATATGTATA [XGTACX_negctrl_site505] | 8.56 ± 0.53
51 | CCATAAAACTATAATACACACATATAGATTAACATA [CACACA_site7849] | 9.07 ± 0.35
52 | GATATAATTATGTGTACACAATTTTTTTTTTTTTTT [CACACA_site4501] | 8.79 ± 0.43
53 | AAATAAAGGAAATAAAAAGAAACCAATTTCGAATAT [CACACA_negctrl_site953] | 8.77 ± 0.55
54 | TTTATATGTATTAATTGTACACATATAATGTGTTTT [XGTACX_site3064] | 8.98 ± 0.42
55 | TTTTTTTTAAAACTATGTACGTAAAAATTGTAGTTT [XGTACX_site2302] | 8.43 ± 0.63
56 | ATATGTATGTATAATCGTACAAAATTTGGCGATCTT [XGTACX_site8698] | 8.85 ± 0.47
57 | AGAACTTTTAATGGATGTACAGTTATTTTATTATTT [XGTACX_site6226] | 8.75 ± 0.42
58 | ATATAGTAAATTGGTAGTACATAAAATGATTTTATG [XGTACX_site4143] | 8.74 ± 0.49
59 | TATATAGATATGATAGTGCATTTTTAGAAAACATAA [GTGCAC_site9962] | 8.6 ± 0.45
60 | TTATGTAGCTAGCTATAAACTTTTTTTTATTTAAAA [CACACA_negctrl_site1297] | 8.21 ± 0.36
61 | AACAGATAAAAGGGTACACACATATATACAAGTACA [CACACA_site7959] | 9.21 ± 0.42
62 | ATATATATATATATATGTACATACTATACAATAATT [XGTACX_site3546] | 9.75 ± 0.24
63 | ATTATTATTAAATACACACACATACCTCCATGTTAG [CACACA_site3430] | 9.42 ± 0.34
64 | AAAGGGAATTATGGCTGTACGCATTTTATAAATAGC [XGTACX_site5878] | 8.88 ± 0.4
65 | TTGTTATTATATTACGCATGCATCATTTATTTGCAC [TGCATGCA_site525] | 9.24 ± 0.43
66 | TTTTTTTTTCTTCTTTTCAAATTTAAGAAATTATAA [CACACA_negctrl_site18] | 7.98 ± 0.45
67 | TGCTGTATATTTTTCTGTACACATTTATATATTCCA [XGTACX_site6244] | 8.96 ± 0.43
68 | AAGAATAAGAAGAAGGATCCCCTTCAAAAAAAAAAA [TGCATGCA_negctrl_site525] | 8.56 ± 0.63
69 | ATGAAGAATTTATATTGTACCCATTTTTATGTAAAT [XGTACX_site2528] | 8.7 ± 0.43

Row | Sequence | gcPBM binding intensity (ln)
70 | AAAAAAAAAACATACACACATACATACATATATATT [CACACA_site949] | 9.28 ± 0.27
71 | CGAAAAAGTGATATAGTGCAAAATTTTCATTTCTCT | 8.86 ± 0.49
72 | AATATTTTTGTCGTTAGTACATAAAAAATAATAATA [XGTACX_site3074] | 8.43 ± 0.4
73 | ATAATTTTATCATATATATATATATATAAATACTTA [CACACA_negctrl_site743] | 8.72 ± 0.3
74 | ATGCTTTTATGCACACGTACAAAAATATTATATAAT [XGTACX_site5589] | 8.82 ± 0.32
75 | AAAAATTGAATTTTTTTTTTTTTTTTGAGAAGGAAA [CACACA_negctrl_site1196] | 7.89 ± 0.4
76 | AATAATAAAGTGAACACACACATATAATATATATAT [CACACA_site4143] | 9.38 ± 0.35
77 | ATAATTAAAATGCTCACACACATAAAAAAAAATTAA [CACACA_site2149] | 8.94 ± 0.46
78 | AATAATATATTTAGGGGTACATAATAATATATTTTA [XGTACX_site8366] | 8.66 ± 0.3
79 | AAAAATAGAATAAATACACACCCGTGTAACGGATTT [CACACA_site3372] | 8.87 ± 0.45
80 | TTTATAAAAATGAACACACACATATAAATATAAATA [CACACA_site7607] | 9.17 ± 0.37
81 | TTTTAAATATGAACATGTACATGTAAATTTACATGT [XGTACX_site4573] | 8.64 ± 0.38
82 | TATTTTTATAAGTAAAAGGAGCACAGTTAAAGGATC [XGTACX_negctrl_site362] | 8.71 ± 0.41
83 | TTTTAATTTATTAATTGTACATGTATTTTAAGATTA [XGTACX_site8417] | 8.61 ± 0.38
84 | TTATTATTAAAAAAAAGTACAGAATTGAATAATACA [XGTACX_site651] | 8.53 ± 0.46
85 | ATTTTTGTGTATTAATGTACTTTATGCATATTTGAC [XGTACX_site3353] | 9.05 ± 0.34
86 | TAAACATTTGGCTGATGTACTTGCTACCTTAAATCA [XGTACX_site5514] | 8.63 ± 0.55
87 | TTGGTCTTTTAAAAAAGTACAAAAAAAAAAAAAAAA [XGTACX_site1665] | 8.08 ± 0.55
88 | TATAAATAAAGATATACACACATATAAATATTTTTC [CACACA_site7798] | 8.88 ± 0.44
89 | TTACGATCATCAATATGTACATATATATATATATAT [XGTACX_site4301] | 9.625 ± 0.035
